Measured values taken from US11299538B2, “Anti-IGF antibodies” (Boehringer Ingelheim International GmbH, priority 2008, dated 2022).

Columns and labels:
Mouse IGF-1 = target: T1, Mouse IGF-1 (Mus musculus, UniProt P05017); assay: surface plasmon resonance (Biacore), antibody capture method; type: binding
T1 construct: Insulin-like growth factor-1 (IGF-1; a 70 amino-acid polypeptide); purchased R&D Systems 791-MG
Procedure: (§1) The sensor chip is coated with approximately 1000 RU of the reference antibody in flow cell 1 and approximately 1000 RU of a rabbit-anti-human Fc-gamma-specific antibody in flow cell 2 using the coupling reagents from an amine coupling kit. A target of 1000 RU is set in the surface preparation wizard of the Biacore 3000 software at a flow rate of 5 μl/min Running buffer used is HBS-EP. […] The IGF antigens are diluted to 500, 250, 125, 62.5 and 31.3 nM in running buffer (HCB) and the different antigen dilutions are run singly over Fc1 and Fc2 with random order. Blank runs using running buffer only are run in-between. A blank run curve is subtracted from each binding curve before affinity analysis. Data evaluation is performed using the BIAevaluation software (version 4.1, Biacore, Freiburg, Germany) The dissociation and association phases of the kinetics are fitted separately. For the separate fit of the kdiss values a time-frame of the initial 200-300 seconds in the dissociation phase is used (range of steady decrease of signal). For the separate fit of the kass values, initial time frames of approx 100 seconds are used (range of steady increase of signal) and for calculation the individual kdiss values are used with the 1:1 Langmuir association model. The average values with the standard deviations of the kinetic data together with the corresponding dissociation (KD) and association (KA) constants are calculated.
(§2) Affinity constants for binding of the antibodies to human, mouse, and rat IGF-1 and IGF-2 is also determined by surface plasmon resonance (Biacore) analysis. The method involves capturing the antibodies on the sensor and flowing the IGF antigens over the captured antibodies, thus overcoming any avidity effect that could occur if the IGF antigens are coated onto the sensor and the antibodies added.

human IGF-1 = target: T2, human IGF-1 (Homo sapiens, UniProt P05019); assay: as above; type: binding
T2 construct: Insulin-like growth factor-1 (IGF-1; a 70 amino-acid polypeptide)
T2 sequence (P05019 49-118): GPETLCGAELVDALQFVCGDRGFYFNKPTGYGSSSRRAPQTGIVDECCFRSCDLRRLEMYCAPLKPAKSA
Procedure: as §1, §2

Human IGF-2 [1] = target: T3, Human IGF-2 (Homo sapiens, UniProt P01344); assay: as above; type: binding
T3 construct: insulin-like growth factor-2 (IGF-2; a 67 amino-acid polypeptide)
T3 sequence (P01344 25-91 limits assumed): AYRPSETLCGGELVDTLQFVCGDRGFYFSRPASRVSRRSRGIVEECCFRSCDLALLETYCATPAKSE
Procedure: as §1, §2

Mouse IGF-2 = target: T4, Mouse IGF-2 (Mus musculus, UniProt P09535); assay: as above; type: binding
T4 construct: insulin-like growth factor-2 (IGF-2; a 67 amino-acid polypeptide)
T4 sequence (P09535 25-91 limits assumed): as the sequence (P01344 25-91 limits assumed) above, with R3G, S5G, G22S, A32S, V35A, S36N counted along it
Procedure: as §1, §2

Rat IGF-1 = target: T5, Rat IGF-1 (Rattus norvegicus, UniProt P08025); assay: as above; type: binding
T5 construct: Insulin-like growth factor-1 (IGF-1; a 70 amino-acid polypeptide)
T5 sequence (P08025 49-118 limits assumed): as the sequence (P05019 49-118) above, with D20P, S35I, A67T counted along it
Procedure: as §1, §2

Rat IGF-2 = target: T6, Rat IGF-2 (Rattus norvegicus, UniProt P01346); assay: as above; type: binding
T6 construct: insulin-like growth factor-2 (IGF-2; a 67 amino-acid polypeptide)
T6 sequence (P01346 25-91 limits assumed): as the sequence (P01344 25-91 limits assumed) above, with G22S, A32S, V35A, S36N counted along it
Procedure: as §1, §2

human insulin = target: T7, human insulin (Homo sapiens, UniProt P01308); assay: direct immunosorbent assay (ELISA) binding titration; details: highest concentration tested, 50 ng/ml; FIG. 1G
T7 construct: purchased Roche
T7 sequence (P01308 25-54 limits assumed): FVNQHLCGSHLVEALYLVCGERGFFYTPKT
T7 sequence (P01308 90-110 limits assumed): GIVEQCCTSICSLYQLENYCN
Procedure: (§3) Fully human IgG1 antibodies that bound with high affinity to IGF-1 are also tested for binding to human IGF-1 in direct immunosorbent assays (ELISA). Assays are performed by coating human IGF-1 (R&D Systems, No. 291-G1) to 96-well Maxisorb plates at a concentration of 0.5 μg/ml overnight at 4° C. (100 μl/well). Coating buffer alone is used as a control for unspecific binding. Wells are then washed once with washing buffer (1×TBS-T) and residual binding sites are blocked with 200 μl blocking buffer for 1 hour at room temperature on an orbital shaker followed by a further wash cycle. Serial three-fold dilutions of each test antibody in blocking buffer are prepared directly on the coated plates. Typical concentrations used are 50, 16.6, 5.6, 1.8, 0.6, 0.2, and 0.07 ng/ml. Blocking buffer alone is used as a positive control. The plates are then incubated for 2 hours at room temperature with agitation. After three wash cycles 100 μl/well of HRPO-conjugated anti-human IgG secondary reagent (Jackson ImmunoResearch Inc.) diluted in blocking buffer is added to all wells. After 2 hours incubation at room temperature with agitation the plates are washed three-times and 100 μl/well of TMB substrate solution (equal amounts of solution A and B) are pipetted into all wells. The plates are incubated for 10-20 min at RT with agitation and then the reaction is stopped by addition of 100 μl/well 1 M phosphoric acid. The absorbance is measured at a wavelength of 450 nm (reference 650 nm).
(§4) Binding of the fully human IGF-1 binding IgG1 antibodies to mouse IGF-1 (R&D Systems, No. 791-MG), rat IGF-1 (IBT, No. RU100), human IGF-2 (GroPep, No. FM001), mouse IGF-2 (R&D Systems, No. 792-MG), rat IGF-2 (IBT, No. AAU100), and human insulin (Roche) is also tested as described above for human IGF-1 (except that the concentration of human insulin used for coating is 3 μg/ml).

Human IGF-2 [2] = target: T3, Human IGF-2; assay: as above; details: FIG. 1D
Procedure: as §3, §4

TC-71 cells = assay: Ewing's sarcoma-derived cell line growth assay; type: cell-based; details: medium containing 10% FCS; relative to humanized IgG1 isotype control; FIG. 5
Procedure: The typical concentrations used are 30, 10, 3.3, 1.1, 0.37, and 0.12 μg/ml (or 100, 10, 1, 0.1, 0.01, 0.001 nM rapamycin and test antibody for combination studies) and each dilution is performed in triplicate wells. The cells plus antibody are then incubated for 120 hours after which time the relative cell number in each well is determined using the CellTiter-Glo luminescent cell viability assay (Promega). Luminescence (LU=Luminescence Units) is recorded using a XFluor GENios Pro 4 and for data analysis the mean value from triplicate wells is taken and fitted by iterative calculations using a sigmoidal curve analysis program (Graph Pad Prism) with variable Hill slope.

T1 sequence (P05017 49-118 limits assumed): as the sequence (P05019 49-118) above, with D20P, S35I, A67T, S69A counted along it

Koff (Mouse IGF-1): 0.000323 s⁻¹
Kon (Mouse IGF-1): 1e+06 M⁻¹ s⁻¹
Koff (human IGF-1): 0.000301 s⁻¹
Kon (human IGF-1): 4.74e+06 M⁻¹ s⁻¹
Kd (Human IGF-2 [1]): 0.9 nM
Koff (Human IGF-2 [1]): 0.00353 s⁻¹
Kon (Human IGF-2 [1]): 3.97e+06 M⁻¹ s⁻¹
Koff (Mouse IGF-2): 0.011 s⁻¹
Kon (Mouse IGF-2): 868000 M⁻¹ s⁻¹
Koff (Rat IGF-1): 0.000253 s⁻¹
Kon (Rat IGF-1): 3.81e+06 M⁻¹ s⁻¹
Koff (Rat IGF-2): 0.00613 s⁻¹
Kon (Rat IGF-2): 2.56e+06 M⁻¹ s⁻¹
ELISA reactivity to human insulin (human insulin): no reactivity
ELISA binding (Human IGF-2 [2]): comparable cross-reactive binding
B1: 60833: fully human IgG1/Igλ anti-IGF antibody; heavy chain SEQ ID NO:39, light chain SEQ ID NO:40 (antibody, listed as Homo sapiens)
heavy: QVELVESGGGLVQPGGSLRLSCAASGFTFTSYWMSWVRQAPGKGLELVSSITSYGSFTYYADSVKGRFTISRDNSKNTLYLQMNSLRAEDTAVYYCARNMYTHFDSWGQGTLVTVSS[human IgG1 constant region left out here]
light: DIVLTQPPSVSGAPGQRVTISCSGSSSNIGSNSVSWYQQLPGTAPKLLIYDNSKRPSGVPDRFSGSKSGTSASLAITGLQSEDEADYYCQSRDTYGYYWVFGGGTKLTVLGQPKAAPSVTLFPPSSEELQANKATLVCLISDFYPGAVTVAWKGDSSPVKAGVETTTPSKQSNNKYAASSYLSLTPEQWKSHRSYSCQVTHEGSTVEKTVAPTECS
effect on TC-71 cell proliferation (TC-71 cells): dose-dependent inhibition
